Source: paper PMC4336329 (PLoS ONE, 2015)
Hit rate of the full screen: of about 310,000 compounds, about 2,200 (0.71%) showed an effect of 50% or more. The effect is printed as a negative number. The list shows a part of the results.

Target: human ether-à-go-go-related gene (hERG) potassium channel (human, UniProt Q12809)
Experiment: primary screen, population patch clamp on CHO cells stably expressing hERG

human ether-à-go-go-related gene (hERG) potassium channel, sequence (Q12809 whole entry, looked up): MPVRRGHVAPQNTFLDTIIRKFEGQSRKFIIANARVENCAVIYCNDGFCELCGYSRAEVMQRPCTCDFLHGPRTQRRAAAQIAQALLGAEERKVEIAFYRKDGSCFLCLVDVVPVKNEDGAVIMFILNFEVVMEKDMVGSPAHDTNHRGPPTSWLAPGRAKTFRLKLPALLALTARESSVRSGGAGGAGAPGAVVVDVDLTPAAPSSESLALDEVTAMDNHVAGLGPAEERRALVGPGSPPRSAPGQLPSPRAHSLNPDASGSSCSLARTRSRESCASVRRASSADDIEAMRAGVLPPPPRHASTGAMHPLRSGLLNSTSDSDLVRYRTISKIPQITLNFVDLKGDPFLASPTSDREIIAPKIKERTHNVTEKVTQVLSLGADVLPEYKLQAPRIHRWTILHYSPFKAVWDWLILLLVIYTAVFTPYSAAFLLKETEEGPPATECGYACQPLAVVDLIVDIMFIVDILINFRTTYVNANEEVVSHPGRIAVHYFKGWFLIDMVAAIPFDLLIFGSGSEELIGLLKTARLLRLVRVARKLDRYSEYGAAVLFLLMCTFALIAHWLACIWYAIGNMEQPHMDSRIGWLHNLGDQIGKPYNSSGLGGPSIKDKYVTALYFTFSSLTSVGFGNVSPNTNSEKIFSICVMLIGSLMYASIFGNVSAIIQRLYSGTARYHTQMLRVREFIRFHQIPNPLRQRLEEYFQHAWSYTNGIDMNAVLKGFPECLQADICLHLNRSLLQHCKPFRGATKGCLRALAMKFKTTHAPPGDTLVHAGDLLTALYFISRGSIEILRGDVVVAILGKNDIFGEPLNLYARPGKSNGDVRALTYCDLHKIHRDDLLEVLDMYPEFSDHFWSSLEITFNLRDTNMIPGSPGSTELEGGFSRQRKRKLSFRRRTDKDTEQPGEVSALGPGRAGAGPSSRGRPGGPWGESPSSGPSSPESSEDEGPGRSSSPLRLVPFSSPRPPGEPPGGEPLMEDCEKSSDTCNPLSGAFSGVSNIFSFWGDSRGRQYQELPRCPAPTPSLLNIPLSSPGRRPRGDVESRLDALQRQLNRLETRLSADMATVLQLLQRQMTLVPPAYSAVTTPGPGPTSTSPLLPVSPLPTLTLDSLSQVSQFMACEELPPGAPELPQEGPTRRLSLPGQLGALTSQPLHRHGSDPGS

| Compound | hERG current change (%, negative = inhibition) at 1uM [%] |
| --- | --- |
| O=[N+]([O-])c1ccc(NCCNS(=O)(=O)c2ccccc2)cc1 | -14.5 |
| Cc1ccc(NC(=O)COC(=O)c2ccc3c(c2)C(=O)N(CCc2ccccc2)C3=O)c(C)c1 | 15.8 |
| COc1ccc(NC(=O)Cn2cnc3sc(C)c(S(=O)(=O)N4CCN(C)CC4)c3c2=O)cc1OC | 15.8 |
| O=C(CN1CC(=O)Nc2ccccc21)NCCc1ccc(Cl)cc1Cl | 47 |
| NCc1nc(-c2ccc(Cl)cc2)no1 | 9.13 |
| COc1cc2occc2c2oc(=O)ccc12 | 9.5 |
| CN(C)S(=O)(=O)c1ccc(N2CCCC2)c(C(=O)NC2CCC(O)CC2)c1 (centres unmarked) | 12.8 |
| COc1cccc(CNC(=O)c2ccc3c(c2)N(C)CCS3)c1OC | 15.7 |
| Cc1ccc(C(=O)OC2CCS(=O)(=O)c3sccc32)cc1 (centres unmarked) | 9.33 |
| Cc1nn(C)c(C(=O)N/N=C/c2ccccn2)c1[N+](=O)[O-] | 17.6 |
| COc1ccc(C/C(O)=C(\C#N)c2nc3ccccc3[nH]2)cc1OC | 17.5 |
| O=C(CSc1ccc(-c2nc3ccccc3[nH]2)cn1)N1CCN(C(=O)c2ccco2)CC1 | -19 |
| Cc1sc2ncn(CC(=O)OC(C)C(=O)NC(C)(C)C)c(=O)c2c1C (centres unmarked) | 12.9 |
| COc1ccc(/C=N/OCC(=O)NCc2cccs2)c(OC)c1 | 11.7 |
| O=C(O)C(=O)O.c1cc2c(cc1OCCNC1CCCC1)CCC2 | 4.25 |
| NNC(=O)c1csc(COc2cc(Cl)cc(Cl)c2)n1 | 10.1 |
| CC(C)CN(C(=O)c1ccco1)c1nc2ccccc2s1 | 15.4 |
| Cc1cc(C)cc(NC(=O)N2CCCC2C(=O)Nc2ccc(-n3cnnn3)cc2)c1 (centres unmarked) | -6.41 |
| O=C(NCc1ccc(C(F)(F)F)cc1)C12CN(Cc3ccccc3)CC1C(c1cccc([N+](=O)[O-])c1)=NO2 (centres unmarked) | 16.8 |
| Cc1ccc2c(C(=O)N3CCN(c4ccccc4)CC3)cc(-c3cccnc3)nc2c1C | 9.45 |
| COc1ccc(C(=O)O)cc1S(=O)(=O)N1CCSCC1 | 13.6 |
| CCC(=O)NCc1c(C)c(C)n(Cc2ccccc2)c1-n1cccc1 | 15.5 |
| CCn1c(CC(=O)Nc2ccc(Cl)c(Cl)c2)nnc1SCc1ccc(Cl)cc1 | 10.7 |

| Compound | hERG current change (%, negative = inhibition) at 1uM [%] |
| --- | --- |
| CCOC(=O)Cc1csc(SC(C)C(=O)NCC(=O)Nc2ccc(F)c(F)c2F)n1 (centres unmarked) | 12.6 |
| COc1cc(CC(=O)Nc2ccc(S(=O)(=O)Nc3ncccn3)cc2)cc(OC)c1OC | 13.2 |
| c1cncc(Nc2nc(-c3cccs3)cs2)c1 | 5.99 |
| N#CCCN(C(=O)Cn1nc(C(=O)O)c2ccccc2c1=O)c1ccccc1 | 13.7 |
| CCOC(=O)C1=NN(c2ccccc2)C2C(=O)N(c3ccccc3OC)C(=O)C12 (centres unmarked) | 6.51 |
| CC(=O)c1ccc(OCC(O)CN2CCN(c3ccc(F)cc3)CC2)cc1.Cl (centres unmarked) | -64.9 |
| COc1ccc(C)cc1N(C(=O)c1ccccc1F)c1nc2ccccc2s1 | 12.1 |
| CCCCCCCCOc1ccc(C2CC(=O)NC2=O)cc1 (centres unmarked) | 9.75 |
| Cc1ccc(OCC(=O)Nc2ccc3c(c2)OCCO3)cc1C | 13.5 |
| C[C@]12CC[C@@H]3c4ccc(O)cc4CC[C@H]3[C@@H]1C[C@@H](O)[C@@H]2O[C@@H]1O[C@H](C(=O)O)[C@@H](O)[C@H](O)[C@H]1O | 13.6 |
| CC(=O)OC(C)=O | 13.1 |
| Cc1cccc(NS(=O)(=O)c2cc(C(=O)N3CCCCCC3)ccc2C)c1 | -0.295 |
| CCCNCCC(c1ccco1)c1ccccc1OC (centres unmarked) | -15.9 |
| CC/C(C)=C1\SC(N2CCN(C(C)=O)CC2)=NC1=O | 9.09 |
| COc1ccc(CC(NC(C)=O)C(=O)NC2CCN(C(=O)c3cnccn3)CC2)cc1 (centres unmarked) | 2.1 |
| CCS(=O)(=O)c1ccc2oc(SCC(=O)NC(C)C3CC4CCC3C4)nc2c1 (centres unmarked) | -3.67 |
| CCC(Sc1nc2c(c(=O)[nH]1)CCC2)C(=O)Nc1cccc(OC)c1 (centres unmarked) | -6.65 |
| CSc1ccccc1C(=O)C1CCCN(Cc2c(C)n(C)n(-c3ccccc3)c2=O)C1 (centres unmarked) | 1.52 |
| Cc1ccc(NC(=O)C2Cc3ccccc3CN2C(=O)c2ccco2)cc1S(=O)(=O)N(C)C (centres unmarked) | 12.6 |
| CCC1(C)Cc2ccccc2-c2nc(SCC(N)=O)[nH]c(=O)c21 (centres unmarked) | 17.5 |
| Fc1ccc(CNC(=S)Nc2ccc(Cl)cc2)cc1 | 7.37 |
| C[C@H](O)C(=O)C1=Nc2c(nc(N)[nH]c2=O)NC1 | 13.5 |
| Cc1ccc(SCC(=O)Nc2ccc(N3CCOCC3)cc2)cc1C | 13 |

| Compound | hERG current change (%, negative = inhibition) at 1uM [%] |
| --- | --- |
| O=C(N/N=C/c1cccc([N+](=O)[O-])c1)c1cc2c(ccc3ccccc32)o1 | 19 |
| C=CCNC(=O)c1ccccc1NC(=O)C1CC(=O)N(C(C)C)C1 (centres unmarked) | 5.42 |
| O=C(CN1CCCC1)Nc1ccc(Cl)cc1C(F)(F)F | 15 |
| CCOC(=O)N1CCC(NC(=O)c2cc(C(=O)Nc3ccc(F)cc3F)ccc2CO)CC1 | 4.8 |
| CCOC(=O)C1CCCN(C(=O)CN2C(=O)COc3ccc(C(C)(C)C)cc32)C1 (centres unmarked) | -4.47 |
| O=C(Cc1ccc(Cl)c(Cl)c1)N/N=C/c1cccnc1 | 2.29 |
| COc1cccc(N2C(=O)CC(Sc3nc(C)cc(C)n3)C2=O)c1 (centres unmarked) | 11.9 |
| Cc1ccc(NC(=O)c2cc(-n3cnnc3)ccc2Cl)cc1 | 4.15 |
| CC(=O)N1CCc2cc(S(=O)(=O)CCC(=O)NCc3ccc(Cl)cc3)ccc21 | 11.2 |
| O=[N+]([O-])c1ccc2c3n([n+]([O-])c2c1)CCN=C3c1ccc(Cl)cc1 | 3.79 |
| Cc1ccc(OC(=O)C2CCN(C(=O)c3ccccc3C)CC2)c(Br)c1 | -6.16 |
| CNS(=O)(=O)c1cccc(C(=O)NCC(C)(C)N2CCCCC2)c1 | 10.7 |
| CCOc1ccc(CCNC(=O)COC(=O)CNS(=O)(=O)c2ccc(C)cc2)cc1OCC | -0.961 |
| C=CCOCCN(CCOCC=C)C1=NS(=O)(=O)c2ccccc21 | 2.66 |
| COc1ccc(N2CC(C(=O)NC3=NCCS3)CC2=O)cc1 (centres unmarked) | 9.17 |
| CC(NS(=O)(=O)c1ccccc1)C(N)=O (centres unmarked) | 6 |
| COc1nnc(-c2ccc(C)c(S(=O)(=O)NCC3CCCO3)c2)c2ccccc12 (centres unmarked) | -0.937 |
| COc1cc(C(=O)O/N=C(\N)c2ccccn2)cc(OC)c1OC | 10.7 |
| COC(=O)/C=C/CC(C)OS(N)(=O)=O (centres unmarked) | 10.7 |
| CC/C(=N/Nc1cccc(C)c1)c1cnnc(SC)n1 | 8.28 |
| Cn1cc(C(=O)Nc2ccc(Cl)cc2)c(C(F)(F)F)n1 | 10.2 |
| Cc1cc(C)c2c(n1)SCC(=O)N2CC(=O)Nc1ccc(C)c(C)c1 | -2.25 |
| CC(C)CC1CCCCC1OC(=O)C[N+]1(C)CCCCC1.[I-] (centres unmarked) | 3.8 |

| Compound | hERG current change (%, negative = inhibition) at 1uM [%] |
| --- | --- |
| CCOC(=O)CC(=O)NC1(Cc2ccc(O)cc2)CCCCC1 | 6.11 |
| CC(=O)Nc1ccc(N/C=C/C(=O)C(C)(C)C)cc1 | 5.65 |
| CCn1c(C(=O)O)c(CC(=O)Nc2ccccc2F)c2ccccc21 | 14.9 |
| Cc1ccc2nc3c(cc2c1)c(NC(=O)c1ccccn1)nn3CC(C)C | -4.52 |
| Cc1ccccc1NC(=O)/C=C/c1cccs1 | -1.78 |
| CCCn1c(=O)c2ccccc2n2c(SCC(=O)c3ccc(CC)cc3)nnc12 | 4.22 |
| CC1CCC(NC(=O)C2CCN(c3cnccn3)CC2)CC1 (centres unmarked) | 15.7 |
| Cc1cc(C)cc(-n2c(C)cc(C(=S)N3CCOCC3)c2C)c1 | 3.64 |
| O=C(NCc1ccccn1)Nc1ccc(Br)cc1 | 3.98 |
| O=C(COc1ccc(F)cc1Br)N1CCN(S(=O)(=O)/C=C/c2ccccc2)CC1 | 3.2 |
| S=C(NCc1ccccc1)Nc1nccs1 | 0.125 |
| COc1ccccc1OCC(=O)Nc1ccc(S(=O)(=O)NC(C)=O)cc1 | 15.2 |
| O=S(=O)(Nc1c(O)ccc2ccccc12)c1ccc(F)cc1 | 10.5 |
| CCc1noc(C)c1C(=O)N1CCN(S(=O)(=O)c2cccc(C(F)(F)F)c2)CC1 | 2.08 |
| CCOc1ccccc1Nc1nc(-c2sc(C)nc2C)cs1 | 22.5 |
| CCOc1ccc(C(=O)Nc2c3c(nn2C(C)(C)C)CSC3)cc1OCC | -0.169 |
| ONC(=Nc1ccc(Cl)cc1)c1ccccc1 | -0.216 |
| Cc1cccc(OCc2nnc(SCC(=O)Nc3cccc(C(=O)N4CCOCC4)c3)n2C)c1 | 6.83 |
| COC(=O)c1ccccc1NC(=O)Cn1nnc(-c2ccc3c(c2)OCO3)n1 | 7.32 |
| O=C(Oc1ccc(C(=S)N2CCOCC2)cc1)c1ccc([N+](=O)[O-])cc1[N+](=O)[O-] | 10.9 |
